According to the supplement of paper PMC3334620:
The full ranking holds about 33,000 sequences; the median of “E-score (-0.5 to 0.5)” is about -0.054, and the highest 2% start at about 0.39. This is one part of the list.

target: Ylr278c (UniProt Q05854); assay: PBM E-score (8-mer binding enrichment) (E-score (-0.5 to 0.5)); higher = stronger / more preferred TF binding; most listed sequences are background and not binding sites; details: protein concentration: 200 nM; construct: GST-DNA-binding domain
Experimental: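 Universal 'all 10-mer' protein binding microarrays (Agilent AMADID 015681) probed with GST-tagged S. cerevisiae TFs (full-length or DBD) made by in vitro transcription/translation (PURExpress), about 100-200 nM. Bound TF was detected with fluorescent anti-GST. Each ungapped 8-mer (which stands for itself and its reverse complement) is scored by the PBM enrichment score (E-score), a modified Wilcoxon-Mann-Whitney statistic from -0.5 to +0.5, computed with the Universal PBM Analysis Suite. Scale: above 0.35 generally sequence-specific binding.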

Row | Sequence | PBM E-score
1 | AGAGTGGC | -0.143
2 | GATGAAGA | 0.0661
3 | GAGCCCGC | 0.16
4 | ATCGCATC | 0.115
5 | ATAGACCC | 0.077
6 | CAGTCGAC | -0.104
7 | AGTCTGTA | -0.179
8 | AGGTTGAG | -0.274
9 | TGTCCGAA | 0.407
10 | ATAATGAC | -0.131
11 | CTGCGCCA | -0.0415
12 | AACTTCGC | 0.0283
13 | ACAGGAGC | -0.0789
14 | AACCTCTA | 0.0888
15 | CTGTTTTC | -0.0785
16 | GTGCGGTA | 0.179
17 | CCAGCAGG | -0.276
18 | CTTACTCA | -0.11
19 | AGCTCAAT | -0.12
20 | AGTAGAGC | -0.206
21 | AACTGGAG | -0.0801
22 | AGGTCTGC | -0.29

Row | Sequence | PBM E-score
23 | ATAGAAAC | -0.0464
24 | AACGTATC | -0.183
25 | CCGGTACC | 0.338
26 | GTAAGGAC | -0.00016
27 | GTAACGGA | 0.332
28 | AAGAGCTT | -0.0532
29 | GTTTAAAC | 0.22
30 | ACAGGACG | -0.043
31 | AATACTAC | -0.0988
32 | AGTAGACG | -0.154
33 | ACGCTATC | -0.0536
34 | GAAGTGTA | -0.174
35 | CCTCCGTC | 0.351
36 | GATTCCAA | -0.116
37 | GCGTGCCA | -0.0657
38 | ATACTATC | -0.117
39 | CCCAGGAC | -0.0962
40 | CGTGTAAG | -0.138
41 | TATGACCA | -0.0708
42 | CGTCGTCA | -0.0908
43 | TCGAACCA | -0.149
44 | GCAAGAGA | -0.205

Row | Sequence | PBM E-score
45 | GGCGGTTA | 0.00531
46 | GCTCGTAC | -0.129
47 | ACCGATTC | 0.0932
48 | GAATCATC | -0.0443
49 | CATCTGAA | -0.114
50 | AGTCAGGC | 0.146
51 | ATAGACTG | -0.233
52 | CGAAACTC | 0.237
53 | CCGGAACG | 0.411
54 | AAGGATCT | -0.273
55 | AGCAGGAA | -0.159
56 | CTGTGATA | -0.247
57 | ATCCGAAT | 0.395
58 | ACCTCTAA | -0.0079
59 | AGGCTGGG | -0.326
60 | AATACATG | 0.0903
61 | CGATATTC | 0.257
62 | ACGACCAG | -0.208
63 | TGTATTAA | -0.0503
64 | CTGTGGTC | -0.104
65 | AGCATTAA | -0.0282
66 | ACGCGCGC | 0.153

Row | Sequence | PBM E-score
67 | AAACCCCA | -0.0305
68 | CTATCAGA | -0.102
69 | ACAACTAC | 0.0206
70 | GTAGTAAA | -0.0567
71 | GTCTTCAC | 0.00183
72 | GGGGCCTA | -0.0926
73 | CTATCAAG | -0.176
74 | GTCTTCCA | -0.231
75 | ACATAATG | 0.0146
76 | ATAATTAC | 0.0989
77 | ACGATAAT | -0.134
78 | ATCCGCAG | 0.259
79 | CGCTATAG | -0.159
80 | GCACGTAA | -0.239
81 | AAGGACAG | -0.07
82 | GTTAGGTA | -0.0613
83 | ATATCGTA | -0.113
84 | CTGCGAAC | -0.285
85 | AGATATAC | -0.157
86 | AATGGAGG | 0.0263
